Data as given in the RNAGym collection of RNA variant scans (doi:10.1093/nar/gkz1192).
Read counts are not given, so values of variants with three or more changes are uncertain.

B1: CPEB3 Ribozyme (parent)
chain: UAACAGGGGGCCACAGCAGAAGCGUUCACGUCGCAGCCCCUGUCAGAUUCUGGUGAAUCUGCGAAUUCUGCUGUAUAUCUC

Variants of: B1
Test: self-cleavage, relative activity (ratio to wild type); higher = more cleavage; in vitro, sequencing
How it was run: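 Barcoded CPEB3 ribozyme mutants, produced by rounds of error-prone PCR, self-cleaved while being transcribed with T7 RNA polymerase for 5 hours at 37°C and during a subsequent 15 min DNase I step before EDTA was added. Sequencing of template-switched cDNA on Illumina gave cleaved and total reads, and DNA sequencing assigned barcodes to variants. Each variant's relative activity is its cleaved/total read fraction divided by the unmutated ribozyme's fraction, averaged across three batches. A variant needed a minimum of 5 reads.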

Variant	self-cleavage
U43C A65U U69A	0.16
U43C U54C U66A	0.2
C44A U74G U76A	0.5
A45G G61C U66C	0.26
U43C U48C A75C	0.15
A45G U48C A64G U66C U80C	0.21
U43C A57G U72A	0.26
U43C U74G A77U	0.99
U43A A56G A57G U72A	0.36
U43C G46A A77G	0.2
A45G A56G U72A	0.15
C44U U60C U74A	0.16
U43C A45G U54C	0.21
U43C A64G U72C	0.5
U43A U60C U66A U80C	0.25
G42U U49C U60C	0.14
U43C A64G A77G U78C	0.14
U43A A56G U69C U80C	0.34
C44U U60A U67C U72G A75G A77G	0.05
A45G A64U U67A	0.45
G42U A64G U80C	0.76
U43C U48C U74C U76C	0.52
G42A U49C U69A U78C	0.16
U43C A47G A56U	0.08

Variant	self-cleavage
A45G A47G A56U	0.37
G42A U43A A45G U51C A75U U78C	0.07
A45G A47C A64G	0.04
A45G A56C G61C	0.21
U43C U67C A75G	0.1
C44A U60G U74C	1.04
U43A A47G A56G U80C	0.47
A45G A65G U67C	0.38
C44G U58A A64G	0.05
U43C U48C A57G U76A A77C	0.74
U43C A57G U72C A77G U78C	0.24
U43C A47G U69A U76G	0.17
U43C U48C U51A	0.19
U43C U51A U78C	0.63
U43C G52A U74A	1.16
U43A G53A U66C	0.17
A45G G46A A56G U72C	0.06
U43A U51C A56G U67C U74C	0.45
U43C A47G A65U	0.18
U43G A45G U51A U76C A77G	0.16
U43C U51C U60C	0.25
U43A U60C A64U	0.42
U43A U54C U80C	1.19
A45G A64U U80C	1.19

Variant	self-cleavage
G42A U51C U58G	0.16
A45G U51C C62A U66C	0.4
U43G U66C U72C A77U	0.05
U43A G70A U80C	0.49
A45G A57U U72C A77G	0.33
A45C G52C U69A	0.27
G42A U58C U67A	0.07
U43C U58C G63A	0.11
U43A U54A C68G	0.79
G42U A75G U76G	0.21
U43C A45G U48C G53U U60A U69C G73A	0.15
G42C U49A U66C A77C	0.23
U43C U54C A65G U67C	0.08
U43C A45G U58C U67C	0.16
U43C U58A U69C	0.13
U43C A45G A65G	0.15
A45C U58A A64U U67A	0.05
U43C U60C U76C	0.46
C44G U49C U72C	0.1
A45G U51C U60A	0.33
U43C A45G U66A U67C	0.23
A45G A64C C79U	0.23
G42A G46A A47U A65G U69A U78A	0.1
U43C U58C U74A	0.16

Variant	self-cleavage
A45G U48A U49C A64G	0.04
C44U U69C U72A	0.16
U43C U69C U78A U80C	0.39
U43C A45G U78A	0.39
C44U A45G A47G	0.18
U43C A45C U80G	0.06
U43A A45G U54A	1.1
U43C U48C A64G U67C U76C C79G	0.07
A45G A47U U74A	0.54
A45C U51A U80C	0.21
U43C U66C A77C	0.13
U43A A45G U67C C68A	0.27
U43C U66C U69C	0.11
A45G G53A A65G A77G	0.3
G42C U43C U49C A56U	0.06
A45C U48C A56U C59A U72C	0.18
A45G A64G A65G U66C	0.17
U43C A56G U60C U69C	0.08
C44U U66C U67C	0.73
C44U G53C U54C A64U	0.24
A45G G52A U67C U74A	0.38
C44U A65G U66C	0.18
U43C U54C U72C U80C	0.63
U43A U54C A77U	1.42

Variant	self-cleavage
U43C A45U A47C C50A	0.1
U43C U49C C59U	0.1
A45G U49G A57G	0.28
U43C A45U U60A	0.9
A45C A47G U54C U60A A65U	0.14
A45G A47U A56G	0.09
A45G U48C U58A	0.15
U43C U60A A75U	0.18
U43C A45U U51C	0.18
A45G U51A U72A A77U U78C	0.66
U43A C44G U67C	0.24
U43A A57U U80C	0.71
U43C U54C A77U	0.21
A45G U49A U67C C79G U80C	0.13
C44G U51C U66C A77U U80C	0.06
U43A U48A U72C	0.6
A45G A47G U58C U69C	0.15
U43A U60A U80C	0.27
C44U U51A U69C	0.15
U43A U60C U72A U78C	0.57
U43C A45G A64U U67C	0.14
G42C U48C A64G U66C U80A	0.16
U43G A57G G73C	0.2
A45G G53A A57G U60A	0.49

Variant	self-cleavage
U43A U74C A75G	1.2
U43A G61A U78A	0.67
G42A G52U A57G A64U C68A	0.16
U43C A47U A56G	0.16
C44A U66C U80C	0.21
U43A A57G U58A C68U U72C	0.21
A45G G61C A64U U67C A75C	0.21
U43C A45C U74C	0.5
U43C C62U U72A U80C	0.09
U43A U54A A64U	0.57
C44U U54C A56U U58C U78C	0.06
U43G U54A C71A	0.15
U43C U74C U80G	0.74
G42A U49C U54C	0.48
A45G G61C U66C U72C	0.25
A45G U48C U58A A64G	0.12
U43C A64G U67C	0.12
U43A A64G U78G	1.11
A45G A57G C68U U69A	0.31
U43G U48C A64G U67C	0.15
U43A A47G U51A A75U	0.69
U43C U48C G53A U60A U69C	0.14
A45G U48C U67G U76C	0.16
C44A U54G U69C	0.04

Variant	self-cleavage
U43C U54C C62U	0.08
A45G U48A U51C U69C	0.21
U43G C44U A57G U58C A75G	0.14
U43A U60A U66C	0.91
U43A A47G A65G U67C U72C	0.32
A45G A47G U78C	0.36
U43A C44U G52A U69A	0.36
G42A U49C U78C	0.49
U43C A56G U78A	0.25
U43C A47G U48C	0.16
U43C U69C U80A	0.16
A45G U48C U69C U72A	0.17
A45G G55A A64U	0.31
A45C U51A U76A	0.21
A45G A64G G73U	1.1
G42C U49A U51A U66C	0.05
A45G U51C A64G	0.57
U43A A47U U72C	0.69
U43A A45G U54C A56G	0.78
U43A A47G U66C	0.57
U43A A64G U76A U80C	1.03
G42C C71G A75U	0.12
U43A A47G U51A A64U	0.13
